In paper PMC4336329 (PLoS ONE, 2015):
Screen size: about 310,000 compounds; about 2,200 (0.71%) showed an effect of 50% or more. Effects have a minus sign here. The list shows a part of the results.

What follows are compounds tested against human ether-à-go-go-related gene (hERG) potassium channel (human, UniProt Q12809) (assay: primary screen, population patch clamp on CHO cells stably expressing hERG).
Chain of human ether-à-go-go-related gene (hERG) potassium channel (Q12809 whole entry, looked up): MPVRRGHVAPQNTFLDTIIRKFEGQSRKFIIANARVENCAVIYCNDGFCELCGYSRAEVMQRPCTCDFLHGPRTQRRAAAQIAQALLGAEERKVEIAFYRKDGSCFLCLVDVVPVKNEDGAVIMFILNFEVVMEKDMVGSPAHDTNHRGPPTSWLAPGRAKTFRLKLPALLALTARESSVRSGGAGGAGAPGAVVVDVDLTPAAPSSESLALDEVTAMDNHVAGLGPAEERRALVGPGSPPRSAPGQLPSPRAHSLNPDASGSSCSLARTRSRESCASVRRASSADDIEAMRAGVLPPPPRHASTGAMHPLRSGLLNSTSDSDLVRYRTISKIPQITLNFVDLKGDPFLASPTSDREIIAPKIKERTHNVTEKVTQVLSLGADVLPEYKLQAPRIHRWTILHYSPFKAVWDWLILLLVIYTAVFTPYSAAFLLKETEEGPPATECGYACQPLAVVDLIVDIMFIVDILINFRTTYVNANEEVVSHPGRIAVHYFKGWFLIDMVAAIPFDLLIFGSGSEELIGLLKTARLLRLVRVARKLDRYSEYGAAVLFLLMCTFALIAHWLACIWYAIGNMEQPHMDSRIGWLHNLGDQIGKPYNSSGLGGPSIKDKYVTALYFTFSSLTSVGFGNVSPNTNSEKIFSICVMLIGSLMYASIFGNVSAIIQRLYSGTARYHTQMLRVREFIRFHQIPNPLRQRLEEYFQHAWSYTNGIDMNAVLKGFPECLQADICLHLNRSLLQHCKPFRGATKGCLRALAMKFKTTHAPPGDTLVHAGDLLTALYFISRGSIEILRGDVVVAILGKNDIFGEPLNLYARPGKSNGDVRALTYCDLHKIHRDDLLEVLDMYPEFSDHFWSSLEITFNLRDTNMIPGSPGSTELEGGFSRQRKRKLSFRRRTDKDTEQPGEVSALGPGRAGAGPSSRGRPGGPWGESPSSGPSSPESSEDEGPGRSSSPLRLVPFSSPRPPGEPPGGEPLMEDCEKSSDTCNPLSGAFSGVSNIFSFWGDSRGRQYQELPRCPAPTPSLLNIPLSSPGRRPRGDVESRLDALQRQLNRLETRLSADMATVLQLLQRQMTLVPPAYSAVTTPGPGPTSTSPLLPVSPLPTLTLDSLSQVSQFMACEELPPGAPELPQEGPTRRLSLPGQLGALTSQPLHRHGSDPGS

Going from `COc1cccc(OCc2nnc(SCC(=O)NNC(=O)C3CCCCC3)n2C)c1` to `COc1cc(SC)ccc1C(=O)OCC(=O)NC1CCCCC1`, the “hERG current change (%, negative = inhibition) at 1uM” value falls from 10% to 7.45%.

Going from `COc1ccc(-c2nc(NC(=O)c3ccc(OCC(=O)Nc4ccc(F)cc4)c(OC)c3)sc2C)cc1` to `COc1ccccc1OCC(=O)Nc1cccc(S(=O)(=O)NC2=NCCCCC2)c1`, the “hERG current change (%, negative = inhibition) at 1uM” value rises from 7.83% to 10.2%.

Compared with `CC(=O)NS(=O)(=O)c1ccc(NC(=O)/C=C/c2cn(-c3ccccc3)nc2-c2ccccc2)cc1`, `O=C(Nc1ccc2c(c1)N(Cc1ccccc1)C(=O)c1ccccc1S2)NC1CC1` is lower in “hERG current change (%, negative = inhibition) at 1uM” value: 19.7% for the first, 6.88% for the second.

First: Cc1ccsc1CNC1C2CC3CC(C2)CC1C3.Cl (stereo not drawn)
Second: COc1ccc(C(=O)N2CCCC(c3nc(-c4cccs4)no3)C2)cc1 (stereo not drawn)
The “hERG current change (%, negative = inhibition) at 1uM” value of the first is higher: 8.63% for the first, -2.12% for the second.

Going from `Nc1ccc(C(=O)Nc2ccc(OC(F)(F)C(F)F)c(NC(=O)c3ccc(N)cc3)c2)cc1` to `Cc1ccc(C(=O)NNc2nc3ccccc3nc2C(F)(F)F)cc1`, the “hERG current change (%, negative = inhibition) at 1uM” value rises from 9.48% to 12.9%.

Compared with `COc1ccccc1N1CCN(CCCNc2c(C)c(=O)n(C)c(=O)n2C)CC1`, `COc1ccc(-c2nn(C)c(=O)c3ccccc23)cc1NS(C)(=O)=O` is lower in “hERG current change (%, negative = inhibition) at 1uM” value: 7.31% for the first, -11% for the second.

Compared with `C/C(=N/OC(=O)N(C)C)c1ncc(C(F)(F)F)cc1N1CCOCC1`, `CN(C)/N=C/C=C1\CCC/C(=C/c2cccs2)C1=O` is lower in “hERG current change (%, negative = inhibition) at 1uM” value: 12.1% for the first, 7.9% for the second.

First: C=CCNC(=O)COc1ccc(S(=O)(=O)N2CCCC2)cc1
Second: COc1ccc(/C=N/NC(=O)CNC(=O)c2ccc(S(=O)(=O)N3CCCC3)cc2)c(OC)c1
The “hERG current change (%, negative = inhibition) at 1uM” value of the first is lower: -6.57% for the first, 6.3% for the second.

First: O=C(Cc1ccccc1)NNC(=O)c1cnccn1
Second: COc1cc(Cl)ccc1NC(=O)COc1ccccc1C(=O)NN
The “hERG current change (%, negative = inhibition) at 1uM” value of the first is higher: 8% for the first, 5.81% for the second.

First: CCOc1ccc(NC(=O)C2CSC(c3ccncc3)=N2)cc1 (stereo not drawn)
Second: O=C(COC(=O)c1ccc(O)cc1)Nc1ccc(Cl)cc1
The “hERG current change (%, negative = inhibition) at 1uM” value of the first is lower: 11.7% for the first, 16.9% for the second.

Compared with `O=C(CNC(=O)[C@@H]1Cc2ccccc2CN1)NC1CCCCC1`, `O=C(N/N=C/c1ccccc1O)C1CCCC1` is lower in “hERG current change (%, negative = inhibition) at 1uM” value: 12.3% for the first, 8.11% for the second.

First: C/C=C/c1ccccc1OCc1ccc(C(=O)O)o1
Second: Cc1ccc(CN(C)C(=O)CCNS(=O)(=O)c2ccccc2)o1
The “hERG current change (%, negative = inhibition) at 1uM” value of the first is higher: 18.7% for the first, -2.12% for the second.

Going from `Cc1ccc(CNC(=O)c2cc(-c3ccccc3)nn2CC2CC(c3cccnc3)=NO2)cc1` (stereo not drawn) to `O=C(O)c1cc(-c2ccccc2)nn1CC1CC(c2cccc([N+](=O)[O-])c2)=NO1` (stereo not drawn), the “hERG current change (%, negative = inhibition) at 1uM” value rises from -7.34% to 17.2%.

First: CCCSC1=C(C#N)C(c2cccnc2)C(C(=O)OCC)=C(c2ccccc2)N1 (stereo not drawn)
Second: COCc1nn2c(N)c(C#N)cnc2c1-c1ccccc1
The “hERG current change (%, negative = inhibition) at 1uM” value of the first is lower: 5.56% for the first, 12% for the second.

Compared with `Cc1ccc2cc(CN(Cc3ccco3)C(=O)C3CCCCC3)c(=O)[nH]c2c1C`, `CCCCN(C)CCCNC(=O)c1cn(C)c2ccc(S(=O)(=O)N(C)C3CCCCC3)cc2c1=O` is lower in “hERG current change (%, negative = inhibition) at 1uM” value: 6.2% for the first, -45.6% for the second.

Compared with `CCCc1nnc(NC(=O)CSc2nc3ccccc3[nH]2)s1`, `CC(C)CCNC(=O)CC1Nc2c3ccccc3nc(=S)n2C1=O` (stereo not drawn) is higher in “hERG current change (%, negative = inhibition) at 1uM” value: -0.548% for the first, 7.45% for the second.

Compared with `COc1ccc2[nH]c(C(=O)NCCN3CCCCC3)cc2c1`, `COc1ccc(Nc2n[nH]c(N)c2C(N)=O)cc1` is higher in “hERG current change (%, negative = inhibition) at 1uM” value: 6.82% for the first, 7.9% for the second.

Going from `CN(C)CCCNC(=O)c1cc(C(=O)c2ccccc2F)c[nH]1` to `COc1ccccc1C(=O)Nc1cc(C)on1`, the “hERG current change (%, negative = inhibition) at 1uM” value rises from 7.67% to 8.96%.

First: COc1ccccc1NS(=O)(=O)c1cc(Cl)ccc1OC
Second: Cc1ccccc1CNS(=O)(=O)c1ccc2c(c1)C(C)(C)C(=O)N2C
The “hERG current change (%, negative = inhibition) at 1uM” value of the first is lower: 9.14% for the first, 9.75% for the second.

Compared with `Brc1ccc(-c2nnc3ccc(N4CCN(c5ccccc5)CC4)nn23)cc1`, `O=C(CNS(=O)(=O)c1ccccc1)N1CCCC1` is higher in “hERG current change (%, negative = inhibition) at 1uM” value: 4.42% for the first, 13.4% for the second.

Going from `COc1cc2c(cc1O)C(Cc1ccc(O)cc1)[N+](C)([O-])CC2` (stereo not drawn) to `CCOC(=O)c1c(N)sc2c(NC(C)=O)cccc12`, the “hERG current change (%, negative = inhibition) at 1uM” value falls from 11.8% to 8.94%.

Compared with `Cc1ncc([N+](=O)[O-])n1CCOC(=O)NC(NCc1ccccc1)C(Cl)(Cl)Cl` (stereo not drawn), `O=C(COC(=O)CCc1c[nH]c2ccccc12)Nc1ccc([N+](=O)[O-])cc1` is higher in “hERG current change (%, negative = inhibition) at 1uM” value: 7.7% for the first, 14.7% for the second.

`CC(C)(C)c1ccc(C2(C)NC(=O)N(CC(=O)c3ccc[nH]3)C2=O)cc1` (stereo not drawn) was tested, and the “hERG current change (%, negative = inhibition) at 1uM” value was 10.9%.
